From the supplement of paper PMC3334620 come the findings set out here.

Whole data set: some 33,000 sequences, median “E-score (-0.5 to 0.5)” near -0.035, cut for the highest 2% near 0.34. The list shows a part of the results.

The experiment addresses T1, Mot3 (UniProt P54785).
T1 sequence: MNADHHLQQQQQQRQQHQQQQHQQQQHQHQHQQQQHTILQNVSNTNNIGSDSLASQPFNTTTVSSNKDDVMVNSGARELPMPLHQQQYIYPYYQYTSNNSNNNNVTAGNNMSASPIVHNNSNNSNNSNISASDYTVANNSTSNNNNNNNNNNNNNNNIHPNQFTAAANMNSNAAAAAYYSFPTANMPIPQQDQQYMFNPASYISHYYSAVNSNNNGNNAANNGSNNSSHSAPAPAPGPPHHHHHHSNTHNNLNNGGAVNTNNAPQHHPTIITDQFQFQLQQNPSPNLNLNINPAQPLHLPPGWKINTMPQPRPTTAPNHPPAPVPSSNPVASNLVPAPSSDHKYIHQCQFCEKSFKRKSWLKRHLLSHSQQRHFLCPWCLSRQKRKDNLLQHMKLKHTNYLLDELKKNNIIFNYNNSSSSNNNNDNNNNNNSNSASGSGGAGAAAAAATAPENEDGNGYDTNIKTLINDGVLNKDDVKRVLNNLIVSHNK
In words: PBM E-score (8-mer binding enrichment) (E-score (-0.5 to 0.5)); higher = stronger / more preferred TF binding; most listed sequences are background and not binding sites. As to conditions: protein concentration: 200 nM; construct: GST-full length. In outline: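 Detection of bound protein used fluorescent anti-GST, with scans normalised by masliner. The proteins were GST-tagged yeast transcription factors applied at about 100-200 nM to universal all-10-mer Agilent arrays made double-stranded by primer extension. Each ungapped eight-base word, pooled with its reverse complement, was scored with an E-score from the Universal PBM Analysis Suite.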
With TGCCTCAA, the “PBM E-score” value is 0.365.
In the case of AGACTCCC, the “PBM E-score” value is -0.39.
As for CGCGATCA, the figure is -0.0397; as for CCTATTAC, 0.344; as for CACCTCTG, -0.129.
As for ACGACCCT, the figure is -0.0707; as for AGGTGGTA, -0.0557; as for ACGTTTCT, 0.101.
As for GCGAATGA, the figure is 0.0414; as for AATCCAAC, 0.0744.
On to CTCTCCAC, for which the “PBM E-score” value is -0.31.
As for CGTCTTTC, the figure is -0.181; as for ACTTTCTG, 0.0367.
As for CGACGAAC, the figure is -0.104; as for CGCTTATA, -0.0032.
As for GCAGTAGA, the figure is -0.195; as for AGATGCCC, -0.17; as for CTGTGTCA, 0.233.
Consider AAGCAAAG, for which the “PBM E-score” value was -0.00515.
For AGCTAAAT, the “PBM E-score” value is -0.137.
GAAAACTA: the “PBM E-score” value was -0.0722.
As for ATATGGCC, the figure is -0.206; as for CGGAGAGC, -0.172; as for CGGGCGTC, -0.26.
As for CTCGATTA, the figure is 0.0598; as for GCAAGGCA, 0.469; as for GGAAACAC, 0.138.
For the sequence ACGTGGCT, the “PBM E-score” value was -0.0949.
As for AGAGTTGC, the figure is 0.00244.
As for AGGCTGCC, the figure is -0.131; as for TATGTTCA, 0.2; as for CATACACC, -0.0972.
As for AACGTTGA, the “PBM E-score” value was determined as 0.181.
As for TGCACCAA, the figure is -0.187.
Consider AACACACG, for which the “PBM E-score” value was determined as 0.266.
As for CGATTGTA, the figure is 0.131.
For ATTGCCTC, the “PBM E-score” value turned out to be 0.331.
As for CAAGGGTA, the figure is -0.0906.
As for ACTGGTAA, the figure is 0.0941.
As for CATTTCAG, the figure is 0.0934.
On to GCCGCAGA, for which the “PBM E-score” value was -0.188.
As for GCTCGCCA, the figure is -0.114; as for AGCAGTTG, -0.103.
AAACGTGA: the “PBM E-score” value came to 0.178.
As for GCTCCCAA, the figure is -0.289; as for GCAGATGC, 0.137.
With TTGCTAAA, the “PBM E-score” value was determined as 0.0124.
With GTCCGCCA, the “PBM E-score” value was -0.295.
As to AATGCTTG, the “PBM E-score” value is -0.0507.
Turning to ACATTGTA, the “PBM E-score” value was determined as 0.223.
For TCGTTGCA, the “PBM E-score” value turned out to be 0.114.
For GGCCACAC, the “PBM E-score” value was -0.185.
As for TAACAAAA, the “PBM E-score” value came out at 0.206.
As for AAGCCAAT, the figure is -0.0848; as for CACAGGCG, 0.277; as for CATGCCTC, 0.207.
As for CATGCTCA, the figure is 0.0727; as for AGCCTTCG, 0.0956; as for AGAGGGTG, -0.153.
As for GCCGCGTA, the figure is 0.243; as for AGTAGGCC, -0.1.
Turning to AACTGGTC, the “PBM E-score” value was -0.125.
As for CTAGCGGC, the figure is -0.261; as for GTAGCTAA, 0.00767.
As for CAGGCAGA, the figure is 0.0294; as for ACTGCCCA, 0.0214; as for CGTGAAAG, 0.108.
As for ATTATCCC, the figure is 0.00179; as for ATGCGCAA, -0.188.
In the case of ACCAGCTA, the “PBM E-score” value is -0.0514.
As for TGCAAGCA, the figure is -0.0605; as for CGTCATTC, 0.0277.
As for AGATGATC, the figure is 0.0357; as for GTCTGCGA, -0.326; as for AGTCGTCG, -0.0828.
As for CCATAGGG, the figure is -0.0579; as for CTAAGTGC, -0.00085; as for AAAGGCGT, 0.126.
As for GCCTCAAA, the “PBM E-score” value was -0.0438.
As for AACCAAGG, the figure is 0.14; as for CAACCACG, 0.0989.
For the sequence GGTTATAA, the “PBM E-score” value was -0.0249.
On to GCTAAACA, for which the “PBM E-score” value is 0.102.
As for CTATGCCA, the figure is -0.115; as for CTGCAGGC, 0.406; as for GAAGCGAC, -0.176.
As for AAGCCTAT, the figure is 0.168; as for ATCGTGGA, -0.139; as for CGAGGATA, -0.281.
As for ATTTAGGC, the figure is 0.339.
On to AACCAAAC, for which the “PBM E-score” value was -0.0444.
As for AGCACACC, the figure is -0.168; as for ACCAAAAA, 0.0734.
As for CAGATCTC, the figure is -0.268; as for AGGCTCCC, 0.0936; as for ATCGTGCC, 0.27.
As for TCCAACCA, the figure is 0.00277; as for ATCTAGGG, -0.206; as for GAGTGAAA, -0.115.
As for GACGTCTC, the “PBM E-score” value is -0.0253.
As for CGAGCACG, the figure is -0.0182.
As for AGCGAGAT, the figure is -0.266; as for ATCGCTTC, -0.178; as for CTTAAGGC, 0.314.
As for GCAAACCA, the figure is 0.0881.
For the sequence GCCGAGGC, the “PBM E-score” value was found to be 0.0168.
As for ATTTGGGC, the figure is -0.0729; as for CGTAGTTC, -0.0263.
As for GGTTAAAC, the figure is 0.0673.
